PubChem BioAssay AID485281 (National Center for Advancing Translational Sciences (NCATS), 2010)
Out of some 350,000 compounds screened, about 260 (0.074%) were called active. Inconclusive results, whose numbers are uncertain, are shown with a selection of clear calls. Calls come from the whole dose curve; as a rule, active = well fitted inhibition curve with a large enough effect; inconclusive = small, poorly fitted or top-dose-only effect; inactive = no such curve, though single readings can be large or run the other way. Potencies beside an inconclusive call are fits to weak or partial responses and may not hold up.

biological target: Ferritin light chain (Equus caballus) (UniProt P02791); assay: qHTS Assay for Identification of Novel General Anesthetics; settings: apoferritin/1-aminoanthracene competitive binding, fluorescence; activity change, negative = displacement: at 77.5 µM (top of the series); note: nearly all actives have a fitted effect of over 20% in size
Sequence of UniProt P02791 (P02791 whole entry, looked up): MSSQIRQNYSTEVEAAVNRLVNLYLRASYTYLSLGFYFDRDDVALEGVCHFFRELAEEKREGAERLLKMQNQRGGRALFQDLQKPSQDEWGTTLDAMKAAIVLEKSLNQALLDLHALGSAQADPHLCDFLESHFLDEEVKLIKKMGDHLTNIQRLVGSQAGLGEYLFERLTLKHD
Summary of the method: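 Probe: 1-aminoanthracene (50% saturated, PBS). Protein: horse-spleen apoferritin, 10 uM. Incubation: 10 min, room temperature. Detection: 380 nm excitation, 535 nm emission. Analysis: normalized response, four-parameter Hill.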
% is set by controls: 0 for no effect and ±100 for the full control effect; potency is the fitted concentration of half-maximal effect; tags give direction and shape of the fitted curve.

Potency, inconclusive:
Cc1[nH]c(/C=C2/C(=O)Nc3ccc(S(=O)(=O)Cc4c(Cl)cccc4Cl)cc32)c(C)c1C(=O)N1CCCC1CN1CCCC1 (stereo not drawn) 56.2 µM [inhibitor, partial curve, poor fit]
O=c1cc(N2CCN(c3ccc(F)cc3)CC2)[nH]c(=O)n1-c1ccc(Br)cc1 5.62 µM [inhibitor, partial curve]
C/C(=N\N=C1\NC(=O)C(CC(=O)Nc2ccccc2F)S1)C1CCCCC1 (stereo not drawn) 35.5 µM [inhibitor, single point]
Fc1ccc(NCc2nnc(SCc3ccccc3)o2)cc1 28.2 µM [inhibitor, partial curve]
Cc1ncsc1CCOC(=O)C12CC3CC(CC(C3)C1)C2 14.1 µM [inhibitor, partial curve]
CCOC(=O)c1cc2occc2n1CC(=O)Nc1ccc(OC)cc1OC 39.8 µM [inhibitor, single point]
COc1cc(C(=O)NCC(c2cccnc2)N2CCc3ccccc32)cc(OC)c1OC (stereo not drawn) 22.4 µM [inhibitor, partial curve]
NS(=O)(=O)c1ccc(NC(=O)CSc2ccccc2)cc1 31.6 µM [inhibitor, partial curve]
CCCCOC(=O)CSc1nnc(-c2cc(OC)c(OC)c(OC)c2)o1 39.8 µM [inhibitor, partial curve]
CCOc1ncccc1C(=O)OCC(=O)N1CCN(S(=O)(=O)c2ccc(Cl)cc2)CC1 28.2 µM [inhibitor, single point]
CCCCCc1nnc(NC(=O)C2COc3ccccc3O2)s1 (stereo not drawn) 39.8 µM [inhibitor, partial curve]
CC(=O)c1ccc(NC(=O)CCSc2nc(-c3ccco3)cc(C(F)(F)F)n2)cc1 17.8 µM [inhibitor, partial curve]
COc1cccc(NC(=S)NC(=O)Cc2ccc(Cl)cc2)c1 14.1 µM [inhibitor, partial curve]
Nc1nc(-c2ccccc2)c(N=Nc2cccc3ccccc23)s1 39.8 µM [inhibitor, single point]
Cc1ccc(C(C)C)cc1OCC(=O)N/N=C/c1ccc2c(c1)OCCO2 31.6 µM [inhibitor, single point]
O=C(COC(=O)c1ccco1)c1ccc(S(=O)(=O)N2CCCCC2)cc1 28.2 µM [inhibitor, partial curve]
COc1cc(/C=C/C(=O)c2cccc([N+](=O)[O-])c2)cc(OC)c1OC 56.2 µM [inhibitor, single point]
O=C(NCc1ccc2c(c1)OCO2)c1ccc(S(=O)(=O)N2CCOCC2)cc1 35.5 µM [inhibitor, partial curve]
O=c1sc2ccccc2n1Cc1ccccc1 35.5 µM [inhibitor, partial curve]
COc1cccc(O)c1CN1CCCC(C(=O)c2cccc(C(F)(F)F)c2)C1 (stereo not drawn) 15.8 µM [inhibitor, partial curve]
O=C(CSc1ccccn1)Nc1cccc([N+](=O)[O-])c1 39.8 µM [inhibitor, single point]
CC(=O)c1ccc(S(=O)(=O)Nc2cccc(-c3ccc(N4CCCCCC4)nn3)c2)cc1 10 µM [inhibitor, partial curve]
CCn1c(CSc2nc3ccccc3s2)nnc1SCC(=O)c1ccc(Cl)cc1 8.91 µM [inhibitor, partial curve]
COc1cc(CNCCO)cc(Cl)c1OCc1ccc(Cl)cc1Cl 14.1 µM [inhibitor, partial curve]
Cc1ccc(Cl)cc1-n1ncc2c(NC3CCCCCC3)ncnc21 4.47 µM [inhibitor, single point]
S=C(NCCc1ccccc1)Nc1cnc2ccccc2c1 22.4 µM [inhibitor, partial curve]
CS(=O)(=O)N1CCN(c2ccccc2NC(=S)NC(=O)c2ccccc2[N+](=O)[O-])CC1 5.62 µM [inhibitor, full curve]
Cc1ccc2cc(C=C(C#N)C#N)c(N3CCCCC3)nc2c1 15.8 µM [inhibitor, partial curve]
O=S(=O)(NCCSc1ccccc1)c1ccc2c(c1)OCCO2 28.2 µM [inhibitor, partial curve]
Cc1cc(-n2c(SCC(=O)NCCC3=CCCCC3)nc3n[nH]c(C)c3c2=N)ccc1Cl 5.62 µM [inhibitor, full curve]
CCCCOc1ccc(CSc2nc(C)[nH]c2[N+](=O)[O-])cc1[N+](=O)[O-] 39.8 µM [inhibitor, single point]
O=C(COc1ccc(Cl)cc1Cl)NNC(=S)Nc1ccc(F)cc1 39.8 µM [inhibitor, partial curve]
Cc1ccc(C)n1-c1sc2c(c1C#N)CCC(C)C2 (stereo not drawn) 22.4 µM [inhibitor, partial curve]
O=C(CCC1N=C2c3ccccc3N=C(SCc3ccc(F)cc3)N2C1=O)NCc1cccs1 (stereo not drawn) 44.7 µM [inhibitor, single point]
Cc1ccc(SCc2nc3ccccc3[nH]2)cc1 22.4 µM [inhibitor, single point]
CCC(C(=O)Nc1cc(Cl)ccc1OC)n1nc(-c2ccccc2)ccc1=O (stereo not drawn) 17.8 µM [inhibitor, partial curve]
COC(=O)C1=C(C)NC(=S)NC1/C=C/c1ccccc1 (stereo not drawn) 39.8 µM [inhibitor, single point]
O=C(CSc1nnnn1Cc1ccccc1)c1ccccc1 25.1 µM [inhibitor, partial curve]
COC(=O)c1ccc(-n2nnnc2SCC(=O)N2CCCCC2)cc1 35.5 µM [inhibitor, partial curve]
CC(C)c1ccc(NC(=O)C2CCCN(S(=O)(=O)c3cccc4cccnc34)C2)cc1 (stereo not drawn) 7.94 µM [inhibitor, partial curve]
Cc1ccsc1C(=O)OCc1nc2ccccc2c(=O)[nH]1 39.8 µM [inhibitor, partial curve]
COc1ccc(OCC(O)CN(CC(O)COc2ccc(OC)cc2)c2cccc(O)c2)cc1 (stereo not drawn) 31.6 µM [inhibitor, partial curve]
CCOc1ccc(S(=O)(=O)Nc2cc(SCC(=O)O)c(O)c3ccccc23)cc1 35.5 µM [inhibitor, partial curve]
COc1ccc(N(C(=O)C2CCCCC2)S(=O)(=O)c2cccc3cccnc23)cc1 14.1 µM [inhibitor, partial curve]
COc1ccc(C(=O)Nc2ccc(S(=O)(=O)NC(C)(C)C)cc2)cc1[N+](=O)[O-] 22.4 µM [inhibitor, partial curve]
c1ccc2oc(SCc3nc4ccccc4s3)nc2c1 17.8 µM [inhibitor, partial curve]
O=C(/C=C/c1ccc(F)cc1)N1CCCc2ccccc21 22.4 µM [inhibitor, partial curve]
CC1(c2ccc(Cl)cc2)NC(=O)N(CC(=O)c2ccc3c(c2)OCO3)C1=O (stereo not drawn) 25.1 µM [inhibitor, partial curve]
COc1cc(Cl)c(S(=O)(=O)NCCN2CCOCC2)cc1Cl 31.6 µM [inhibitor, partial curve]
COc1cccc(NC(=O)c2ccc3nc(CCc4ccccc4)oc3c2)c1 7.94 µM [inhibitor, full curve, poor fit]
CCCCN(C)c1nc2c(S(=O)(=O)c3ccc(CC)cc3)nnn2c2ccc(Cl)cc12 3.55 µM [inhibitor, partial curve]
O=C(CCCn1c(=O)c2ccccc2n(Cc2cccc(F)c2)c1=O)NC1CCN(Cc2ccccc2)CC1 15.8 µM [inhibitor, partial curve]
COc1ccccc1CCNC(=O)C(=O)NCC1OCCN1S(=O)(=O)c1ccc([N+](=O)[O-])cc1 (stereo not drawn) 15.8 µM [inhibitor, partial curve]

Activity change, negative = displacement, inactive:
Cc1ccccc1Cn1c(=O)n(Cc2ccc(Cl)cc2)c(=O)c2cccnc21 -8.46%
CC(=O)c1ccc(N2CCN(C(=O)C3CCN(S(=O)(=O)c4ccc5c(c4)CC(C)N5C(C)=O)CC3)CC2)cc1 (stereo not drawn) -6.95%
c1ccc(-c2cc3ccccc3nc2N2CCCC2)cc1 63.7%
COc1ccc(-c2cc(-c3ccccc3)n3ncnc3n2)cc1 -4.29%
COc1cc(CN2CCNC(=O)C2CC(=O)O)cc(OC)c1 (stereo not drawn) 0.201%
CCOC(=O)CC(NS(=O)(=O)c1ccc2[nH]c3c(c2c1)CCCC3)c1ccccc1Cl (stereo not drawn) 0.211%
CCOC(=O)c1ccc(N=NN(C)C)cc1 -6.34%
O=C(Nc1ccc(F)cc1)Nc1ccc(N2CCCC2)c(S(=O)(=O)Nc2ccccc2Cl)c1 49.5%
COC(=O)/C(C#N)=C/c1c(N2CCN(c3ccccc3)CC2)nc2ccccn2c1=O -21.2%
COC(=O)c1cc2sccc2n1CC(=O)Nc1ccc(OC)c(OC)c1OC -8.57%
